Reference: PubChem BioAssay AID485281 (National Center for Advancing Translational Sciences (NCATS), 2010)
Out of some 350,000 compounds screened, about 260 (0.074%) were called active. The shares of active, inactive and inconclusive entries below differ from those in the screen. The call rests on the fitted dose curve; in most records, active means well fitted inhibition curve with a large enough effect; inconclusive means small, poorly fitted or top-dose-only effect; inactive means no such curve, though single readings can be large or run the other way. Potencies beside an inconclusive call are fits to weak or partial responses and may not hold up.

target: Ferritin light chain (Equus caballus) (UniProt P02791); assay: qHTS Assay for Identification of Novel General Anesthetics; details: apoferritin/1-aminoanthracene competitive binding, fluorescence; series mostly up to 77.5 µM; further: nearly all actives have a fitted effect of over 20% in size
How it was run: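 10 uM apoferritin + 50% sat. 1-AMA, PBS; cpd 10 min RT; Ex380/Em535 endpoint; normalized to free probe vs complex; 4-param Hill fit; propofol titration as pos. ctrl.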
Potency means the concentration at half of the fitted maximal effect; tags describe the fitted curve by direction and shape.

Sequence of UniProt P02791 (P02791 whole entry, looked up): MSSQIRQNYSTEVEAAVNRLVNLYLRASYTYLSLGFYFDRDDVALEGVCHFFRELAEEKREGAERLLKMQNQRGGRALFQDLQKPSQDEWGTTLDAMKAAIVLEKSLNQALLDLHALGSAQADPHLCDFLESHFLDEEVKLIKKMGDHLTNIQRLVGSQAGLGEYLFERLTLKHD

SMILES | Potency
O=C(N/N=C/c1ccc(O)c(O)c1)c1ccc(CSc2cccc3cccnc23)cc1 | inconclusive: 44.7 µM [inhibitor, partial curve]
Cc1c(Cl)cccc1NC(=S)NCCc1ccc(S(N)(=O)=O)cc1 | inactive
O=C(OCC(=O)N(C1CCCCC1)C1CCCCC1)c1cnccn1 | inconclusive: 35.5 µM [inhibitor, single point]
Cc1ccsc1/C=N\NC(=O)CC(=O)NCc1ccccc1 | inconclusive: 39.8 µM [inhibitor, single point]
O=C(Nc1ccc(Cl)cc1)c1csc(-c2ccncc2)n1 | inconclusive: 39.8 µM [inhibitor, partial curve]
NC(=O)NC(=O)CSc1nc2cc([N+](=O)[O-])ccc2n1-c1cccc(C(F)(F)F)c1 | inconclusive: 50.1 µM [inhibitor, single point]
CCCCCCCOC(=O)c1ccc(OC(=O)c2cccnc2)cc1 | inconclusive: 17.8 µM [inhibitor, partial curve]
CCC1CCC(c2nnc(-c3ccc([N+](=O)[O-])cc3)o2)CC1 (configuration not stated) | inconclusive: 8.91 µM [inhibitor, partial curve]
Oc1oc(-c2ccco2)nc1C=Nc1cccc(Cl)c1 | inconclusive: 22.4 µM [inhibitor, partial curve]
CCOC(=O)c1cnn(CC2CCCCC2)c1N | inconclusive: 28.2 µM [inhibitor, partial curve]
CCn1c(C)nc2cc(C(=O)n3cc(C(=O)c4ccccc4O)cn3)ccc21 | inconclusive: 10 µM [inhibitor, partial curve, poor fit]
CCCCN1C(=O)C2ON(c3ccccc3C)C(c3ccco3)C2C1=O (configuration not stated) | inconclusive: 17.8 µM [inhibitor, partial curve]
CC(C)c1ccc(NC(=O)C(c2ccccc2)N(Cc2ccco2)C(=O)CC2NC(=O)NC2=O)cc1 (configuration not stated) | inconclusive: 10 µM [inhibitor, partial curve]
CCC(C)(C)C(=O)Nc1ncc(S(=O)(=O)c2ccc([N+](=O)[O-])cc2)s1 | inconclusive: 35.5 µM [inhibitor, partial curve]
CCOC(=O)C1CCN(C2=C(NS(=O)(=O)c3ccc(Br)cc3)C(=O)c3ccccc3C2=O)CC1 | inconclusive: 15.8 µM [inhibitor, partial curve]
CN1C(=O)C(CC(=O)NCC2CCCCC2)SC1=Nc1ccccc1 (configuration not stated) | inconclusive: 31.6 µM [inhibitor, partial curve]
COc1ccc(C2CC(c3ccc(OC)cc3)n3nc(NC(=O)c4cccs4)nc3N2)cc1 (configuration not stated) | inconclusive: 15.8 µM [inhibitor, partial curve]
